# According to the supplement of paper PMC8728848:
# The other results are listed elsewhere or left out.
# Assays:
# Assay in all cases: glycan array binding signal (z-score within array); higher = stronger binding
# Settings in all cases: glycan notation: IUPAC condensed, linker removed
# [1] = target: Gal(b1-4)GlcNAc(b1-3)Gal(b1-4)GlcNAc(b1-3)Gal(b1-4)GlcNAc(b1-3)Gal(b1-4)GlcNAc(b1-2)Man(a1-3)[Gal(b1-4)GlcNAc(b1-3)Gal(b1-4)GlcNAc(b1-3)Gal(b1-4)GlcNAc(b1-3)Gal(b1-4)GlcNAc(b1-2)Man(a1-6)]Man(b1-4)GlcNAc(b1-4)[Fuc(a1-6)]GlcNAc
# Summary of the method: (§1)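 Glycan array data were curated from 3228 arrays in the Consortium for Functional Glycomics database and kept only where the protein sequence was available. Glycan names were converted to IUPAC-condensed notation, and columns mapping to the same glycan were averaged. The binding signal is a within-array Z-score, averaged across arrays of the same protein sequence at different concentrations or buffers and across linkers. Negative Z-scores can be read as non-binding.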
# [2] = target: Gal(b1-4)GlcNAc(b1-3)Gal(b1-4)GlcNAc(b1-3)Gal(b1-4)GlcNAc(b1-3)Gal(b1-4)GlcNAc(b1-2)[Gal(b1-4)GlcNAc(b1-3)Gal(b1-4)GlcNAc(b1-3)Gal(b1-4)GlcNAc(b1-3)Gal(b1-4)GlcNAc(b1-6)]Man(a1-6)[Gal(b1-4)GlcNAc(b1-3)Gal(b1-4)GlcNAc(b1-3)Gal(b1-4)GlcNAc(b1-3)Gal(b1-4)GlcNAc(b1-2)Man(a1-3)]Man(b1-4)GlcNAc(b1-4)[Fuc(a1-6)]GlcNAc
# Summary of the method: as §1
# [3] = target: Gal(b1-4)GlcNAc(b1-3)Gal(b1-4)GlcNAc(b1-3)Gal(b1-4)GlcNAc(b1-3)Gal(b1-4)GlcNAc(b1-3)Gal(b1-4)GlcNAc(b1-2)Man(a1-3)[Gal(b1-4)GlcNAc(b1-3)Gal(b1-4)GlcNAc(b1-3)Gal(b1-4)GlcNAc(b1-3)Gal(b1-4)GlcNAc(b1-3)Gal(b1-4)GlcNAc(b1-2)Man(a1-6)]Man(b1-4)GlcNAc(b1-4)GlcNAc
# Summary of the method: as §1
# [4] = target: Gal(b1-4)GlcNAc(b1-3)Gal(b1-4)GlcNAc(b1-3)Gal(b1-4)GlcNAc(b1-3)Gal(b1-4)GlcNAc(b1-3)Gal(b1-4)GlcNAc(b1-2)Man(a1-3)[Gal(b1-4)GlcNAc(b1-3)Gal(b1-4)GlcNAc(b1-3)Gal(b1-4)GlcNAc(b1-3)Gal(b1-4)GlcNAc(b1-3)Gal(b1-4)GlcNAc(b1-2)Man(a1-6)]Man(b1-4)GlcNAc(b1-4)[Fuc(a1-6)]GlcNAc
# Summary of the method: as §1
# [5] = target: Gal(b1-4)GlcNAc(b1-3)Gal(b1-4)GlcNAc(b1-3)Gal(b1-4)GlcNAc(b1-3)Gal(b1-4)GlcNAc(b1-3)Gal(b1-4)GlcNAc(b1-2)[Gal(b1-4)GlcNAc(b1-3)Gal(b1-4)GlcNAc(b1-3)Gal(b1-4)GlcNAc(b1-3)Gal(b1-4)GlcNAc(b1-3)Gal(b1-4)GlcNAc(b1-6)]Man(a1-6)[Gal(b1-4)GlcNAc(b1-3)Gal(b1-4)GlcNAc(b1-3)Gal(b1-4)GlcNAc(b1-3)Gal(b1-4)GlcNAc(b1-3)Gal(b1-4)GlcNAc(b1-2)Man(a1-3)]Man(b1-4)GlcNAc(b1-4)[Fuc(a1-6)]GlcNAc
# Summary of the method: as §1
# [6] = target: Gal(b1-4)GlcNAc(b1-3)Gal(b1-4)GlcNAc(b1-3)Gal(b1-4)GlcNAc(b1-3)Gal(b1-4)GlcNAc(b1-3)Gal(b1-4)GlcNAc(b1-3)Gal(b1-4)GlcNAc(b1-2)Man(a1-3)[Gal(b1-4)GlcNAc(b1-3)Gal(b1-4)GlcNAc(b1-3)Gal(b1-4)GlcNAc(b1-3)Gal(b1-4)GlcNAc(b1-3)Gal(b1-4)GlcNAc(b1-3)Gal(b1-4)GlcNAc(b1-2)Man(a1-6)]Man(b1-4)GlcNAc(b1-4)GlcNAc
# Summary of the method: as §1
# [7] = target: Gal(b1-4)GlcNAc(b1-3)Gal(b1-4)GlcNAc(b1-3)GalNAc
# Summary of the method: as §1
# [8] = target: Gal(b1-4)GlcNAc(b1-3)Gal(b1-4)GlcNAc(b1-3)[Gal(b1-4)GlcNAc(b1-3)Gal(b1-4)GlcNAc(b1-6)]GalNAc
# Summary of the method: as §1
# [9] = target: Gal(b1-4)GlcNAc(b1-3)Gal(b1-4)GlcNAc(b1-6)[Gal(b1-3)]GalNAc
# Summary of the method: as §1
# [10] = target: Gal(b1-4)GlcNAc(b1-3)Gal(b1-4)[Fuc(a1-3)]GlcNAc(b1-3)Gal(b1-4)[Fuc(a1-3)]GlcNAc
# Summary of the method: as §1
# [11] = target: Gal(b1-4)GlcNAc(b1-3)GalNAc
# Summary of the method: as §1
# [12] = target: Gal(b1-4)GlcNAc(b1-3)[Fuc(a1-3)GlcNAc(b1-6)]Gal(b1-4)Glc
# Summary of the method: as §1
# [13] = target: Gal(b1-4)GlcNAc(b1-3)[Gal(b1-4)GlcNAc(b1-6)]Gal(b1-4)GlcNAc
# Summary of the method: as §1
# [14] = target: Gal(b1-4)GlcNAc(b1-3)[Gal(b1-4)GlcNAc(b1-6)]GalNAc
# Summary of the method: as §1
# [15] = target: Gal(b1-4)GlcNAc(b1-3)[GlcNAc(b1-6)]Gal(b1-4)GlcNAc
# Summary of the method: as §1
# [16] = target: Gal(b1-4)GlcNAc(b1-6)Gal(b1-4)GlcNAc
# Summary of the method: as §1
# [17] = target: Gal(b1-4)GlcNAc(b1-6)Gal(b1-4)GlcNAc(b1-6)GalNAc
# Summary of the method: as §1
# [18] = target: Gal(b1-4)GlcNAc(b1-6)GalNAc
# Summary of the method: as §1
# [19] = target: Gal(b1-4)GlcNAc(b1-6)[Gal(b1-3)]GalNAc
# Summary of the method: as §1
# [20] = target: Gal(b1-4)GlcNAc(b1-6)[Gal(b1-3)]GlcNAc
# Summary of the method: as §1
# [21] = target: Gal(b1-4)GlcNAc(b1-6)[Gal(b1-4)GlcNAc(b1-3)]GalNAc
# Summary of the method: as §1
# [22] = target: Gal(b1-4)GlcNAc6P
# Summary of the method: as §1
# [23] = target: Gal(b1-6)Gal
# Summary of the method: as §1
# [24] = target: Gal3S(b1-3)GalNAc
# Summary of the method: as §1
# [25] = target: Gal3S(b1-3)GlcNAc
# Summary of the method: as §1
# [26] = target: Gal3S(b1-3)[Fuc(a1-4)]GlcNAc
# Summary of the method: as §1
# [27] = target: Gal3S(b1-4)Glc
# Summary of the method: as §1
# [28] = target: Gal3S(b1-4)Glc6S
# Summary of the method: as §1
# [29] = target: Gal3S(b1-4)GlcNAc
# Summary of the method: as §1
# [30] = target: Gal3S(b1-4)GlcNAc6S
# Summary of the method: as §1
# [31] = target: Gal3S(b1-4)[Fuc(a1-3)]Glc6S
# Summary of the method: as §1
# [32] = target: Gal3S(b1-4)[Fuc(a1-3)]GlcNAc
# Summary of the method: as §1
# [33] = target: Gal3S(b1-4)[Fuc(a1-3)]GlcNAc6S
# Summary of the method: as §1
# [34] = target: Gal3S4S(b1-4)GlcNAc
# Summary of the method: as §1
# [35] = target: Gal3S6S(b1-4)GlcNAc
# Summary of the method: as §1
# [36] = target: Gal3S6S(b1-4)GlcNAc6S
# Summary of the method: as §1
# [37] = target: Gal4S(b1-4)GlcNAc
# Summary of the method: as §1
# [38] = target: Gal4S6S(b1-4)GlcNAc
# Summary of the method: as §1
# [39] = target: Gal6P(b1-4)GlcNAc
# Summary of the method: as §1
# [40] = target: Gal6S(b1-3)GlcNAc
# Summary of the method: as §1
# [41] = target: Gal6S(b1-3)GlcNAc6S
# Summary of the method: as §1
# [42] = target: Gal6S(b1-4)Glc
# Summary of the method: as §1
# [43] = target: Gal6S(b1-4)Glc6S
# Summary of the method: as §1
# [44] = target: Gal6S(b1-4)GlcNAc
# Summary of the method: as §1
# [45] = target: Gal6S(b1-4)GlcNAc6S
# Summary of the method: as §1
binder,measurement,setting,value
"UEA-I (Ulex europaeus), P22972 (protein) SDDLSFKFKNFSQNGKDLSFQGDASVIETGVLQLNKVGNNLPDETGGIARYIAPIHIWNCNTGEVASFITSFSFFMETSANPKAATDGLTFFLAPPDSPLRRAGGYFGLFEDTKDNDSSYQTVAVEFDTIGSPVNFDDPGFPHIGIDVNRVKSINAERWNKRYGLNNVANVEIIYEASSKTLTASLTYPSDQTSISVTSIVDLKEILPEWVSVGFSGGTYIGRQATHEVLNWYFTSNLINTNS",glycan array binding signal (z-score),[1],-0.103
same,glycan array binding signal (z-score),[2],-0.13
same,glycan array binding signal (z-score),[3],-0.127
same,glycan array binding signal (z-score),[4],-0.21
same,glycan array binding signal (z-score),[5],-0.084
same,glycan array binding signal (z-score),[6],-0.196
same,glycan array binding signal (z-score),[7],0.337
same,glycan array binding signal (z-score),[8],0.47
same,glycan array binding signal (z-score),[9],0.232
same,glycan array binding signal (z-score),[10],-0.182
same,glycan array binding signal (z-score),[11],-0.16
same,glycan array binding signal (z-score),[12],-0.154
same,glycan array binding signal (z-score),[13],-0.08
same,glycan array binding signal (z-score),[14],-0.196
same,glycan array binding signal (z-score),[15],-0.208
same,glycan array binding signal (z-score),[16],-0.195
same,glycan array binding signal (z-score),[17],-0.226
same,glycan array binding signal (z-score),[18],-0.11
same,glycan array binding signal (z-score),[19],-0.084
same,glycan array binding signal (z-score),[20],-0.588
same,glycan array binding signal (z-score),[21],-0.14
same,glycan array binding signal (z-score),[22],-0.15
same,glycan array binding signal (z-score),[23],-0.224
same,glycan array binding signal (z-score),[24],-0.206
same,glycan array binding signal (z-score),[25],-0.201
same,glycan array binding signal (z-score),[26],-0.152
same,glycan array binding signal (z-score),[27],-0.175
same,glycan array binding signal (z-score),[28],-0.125
same,glycan array binding signal (z-score),[29],-0.213
same,glycan array binding signal (z-score),[30],0.289
same,glycan array binding signal (z-score),[31],-0.009
same,glycan array binding signal (z-score),[32],-0.24
same,glycan array binding signal (z-score),[33],-0.212
same,glycan array binding signal (z-score),[34],-0.204
same,glycan array binding signal (z-score),[35],-0.202
same,glycan array binding signal (z-score),[36],-0.203
same,glycan array binding signal (z-score),[37],-0.228
same,glycan array binding signal (z-score),[38],-0.142
same,glycan array binding signal (z-score),[39],-0.279
same,glycan array binding signal (z-score),[40],-0.33
same,glycan array binding signal (z-score),[41],-0.28
same,glycan array binding signal (z-score),[42],-0.199
same,glycan array binding signal (z-score),[43],-0.098
same,glycan array binding signal (z-score),[44],-0.253
same,glycan array binding signal (z-score),[45],-0.257
